Results on 31 sequences are retold here after publication PMC12820563, “FoxP3 forms a head-to-head dimer in vivo and stabilizes its multimerization on adjacent microsatellites”.

The other results are listed elsewhere or left out.

In the assay the target is T1, MBP-FoxP1dN (Mus musculus, UniProt P58462 326-579).
T1 sequence: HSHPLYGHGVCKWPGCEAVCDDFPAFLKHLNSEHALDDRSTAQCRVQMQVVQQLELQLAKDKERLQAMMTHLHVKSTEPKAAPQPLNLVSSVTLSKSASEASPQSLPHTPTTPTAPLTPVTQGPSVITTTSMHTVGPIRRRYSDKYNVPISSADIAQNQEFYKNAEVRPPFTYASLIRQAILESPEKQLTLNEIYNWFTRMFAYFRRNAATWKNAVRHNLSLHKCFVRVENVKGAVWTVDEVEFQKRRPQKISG
Description: PD-seq (MBP pull-down with sequencing); 20 mM Tris-HCl pH 7.5, 100 mM NaCl, 1.5 mM MgCl2, 0.4 uM protein, 0.1 uM dsDNA library, 30 min, room temperature, amylose pull-down; high values mean tight binding. The note with it: protein: recombinant; tags: His6-MBP; chain copies: 2; dsDNA, one strand shown. The method in brief: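 The N-terminus-lacking fragment of mouse FoxP3 or FoxP1 carried a His6-MBP tag and was expressed in E. coli. At 0.4 µM it was incubated with 0.1 µM Klenow-filled degenerate double-stranded DNA library for 30 min at room temperature in Tris pH 7.5 buffer with NaCl and MgCl2, and complexes were caught on amylose resin, washed three times, released with proteinase K, PCR-barcoded and Illumina-sequenced. Binding is reads-per-million enrichment of pull-down over input with replicates pooled.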
As for “GATGATTGTTCTCCCAGCTGATGAATTTTGCTAATCGAGTAAACAAATTTTCCTAATCTTTCTGTTCAAGCGCCATCTAC”, the binding signal is 1.06 RPM ratio (pull-down/input).
Regarding “GATGATTGTTCTCCCAGCTGATGAATTCGGTCACTCGAGTAAACAAATTTTCCTAATCTTTCTGTTCAAGCGCCATCTAC”, the binding signal is 0.835 RPM ratio (pull-down/input).
In the case of “GATGATTGTTCTCCCAGCTGATGAATTGTCTCTCTCGAGTAAACAAATTTTCCTAATCTTTCTGTTCAAGCGCCATCTAC”, the binding signal was 1.03 RPM ratio (pull-down/input).
The result for “GATGATTGTTCTCCCAGCTGATGAATTCCAAATATCGAGTAAACAAATTTTCCTAATCTTTCTGTTCAAGCGCCATCTAC” reads 1.22 RPM ratio (pull-down/input).
The result for “GATGATTGTTCTCCCAGCTGATGAATTTAGATTCTCGAGTAAACAAATTTTCCTAATCTTTCTGTTCAAGCGCCATCTAC” reads 0.988 RPM ratio (pull-down/input); that for “GATGATTGTTCTCCCAGCTGATGAATTGACATATTCGAGTAAACAAATTTTCCTAATCTTTCTGTTCAAGCGCCATCTAC”, 1.29 RPM ratio (pull-down/input); that for “GATGATTGTTCTCCCAGCTGATGAATTTTGAATCTCGAGTAAACAAATTTTCCTAATCTTTCTGTTCAAGCGCCATCTAC”, 0.828 RPM ratio (pull-down/input).
Then “GATGATTGTTCTCCCAGCTGATGAATTCAATTTGTCGAGTAAACAAATTTTCCTAATCTTTCTGTTCAAGCGCCATCTAC”, with 1.07 RPM ratio (pull-down/input); and “GATGATTGTTCTCCCAGCTGATGAATTTCCGGAGTCGAGTAAACAAATTTTCCTAATCTTTCTGTTCAAGCGCCATCTAC”, with 0.774 RPM ratio (pull-down/input).
On to “GATGATTGTTCTCCCAGCTGATGAATTATTGCGTTCGAGTAAACAAATTTTCCTAATCTTTCTGTTCAAGCGCCATCTAC”, for which the binding signal was 1.28 RPM ratio (pull-down/input).
The result for “GATGATTGTTCTCCCAGCTGATGAATTTCATACCTCGAGTAAACAAATTTTCCTAATCTTTCTGTTCAAGCGCCATCTAC” reads 0.855 RPM ratio (pull-down/input); that for “GATGATTGTTCTCCCAGCTGATGAATTAAACACGTCGAGTAAACAAATTTTCCTAATCTTTCTGTTCAAGCGCCATCTAC”, 1.21 RPM ratio (pull-down/input).
Consider “GATGATTGTTCTCCCAGCTGATGAATTGAGCTTGTCGAGTAAACAAATTTTCCTAATCTTTCTGTTCAAGCGCCATCTAC”, for which the binding signal is 0.829 RPM ratio (pull-down/input).
“GATGATTGTTCTCCCAGCTGATGAATTATAACTTTCGAGTAAACAAATTTTCCTAATCTTTCTGTTCAAGCGCCATCTAC”: the binding signal is 1.02 RPM ratio (pull-down/input).
Then “GATGATTGTTCTCCCAGCTGATGAATTATCTCGCTCGAGTAAACAAATTTTCCTAATCTTTCTGTTCAAGCGCCATCTAC”, with 0.965 RPM ratio (pull-down/input); and “GATGATTGTTCTCCCAGCTGATGAATTAGACTTATCGAGTAAACAAATTTTCCTAATCTTTCTGTTCAAGCGCCATCTAC”, with 0.957 RPM ratio (pull-down/input); and “GATGATTGTTCTCCCAGCTGATGAATTGGTACGATCGAGTAAACAAATTTTCCTAATCTTTCTGTTCAAGCGCCATCTAC”, with 1 RPM ratio (pull-down/input).
For “GATGATTGTTCTCCCAGCTGATGAATTCAGAGCGTCGAGTAAACAAATTTTCCTAATCTTTCTGTTCAAGCGCCATCTAC”, the binding signal is 0.834 RPM ratio (pull-down/input).
For “GATGATTGTTCTCCCAGCTGATGAATTGATTCACTCGAGTAAACAAATTTTCCTAATCTTTCTGTTCAAGCGCCATCTAC”, the binding signal was 1.03 RPM ratio (pull-down/input).
On to “GATGATTGTTCTCCCAGCTGATGAATTCTCCTTATCGAGTAAACAAATTTTCCTAATCTTTCTGTTCAAGCGCCATCTAC”, for which the binding signal was 0.861 RPM ratio (pull-down/input).
Consider “GATGATTGTTCTCCCAGCTGATGAATTTTGGGGTTCGAGTAAACAAATTTTCCTAATCTTTCTGTTCAAGCGCCATCTAC”, for which the binding signal was 0.812 RPM ratio (pull-down/input).
Regarding “GATGATTGTTCTCCCAGCTGATGAATTACATAGTTCGAGTAAACAAATTTTCCTAATCTTTCTGTTCAAGCGCCATCTAC”, the binding signal was 1.21 RPM ratio (pull-down/input).
Then “GATGATTGTTCTCCCAGCTGATGAATTTCTCCTCTCGAGTAAACAAATTTTCCTAATCTTTCTGTTCAAGCGCCATCTAC”, with 0.835 RPM ratio (pull-down/input); and “GATGATTGTTCTCCCAGCTGATGAATTTTGGCTCTCGAGTAAACAAATTTTCCTAATCTTTCTGTTCAAGCGCCATCTAC”, with 0.802 RPM ratio (pull-down/input).
In the case of “GATGATTGTTCTCCCAGCTGATGAATTGGGAAGGTCGAGTAAACAAATTTTCCTAATCTTTCTGTTCAAGCGCCATCTAC”, the binding signal is 0.786 RPM ratio (pull-down/input).
As to “GATGATTGTTCTCCCAGCTGATGAATTCAATCTCTCGAGTAAACAAATTTTCCTAATCTTTCTGTTCAAGCGCCATCTAC”, the binding signal was 0.857 RPM ratio (pull-down/input).
The result for “GATGATTGTTCTCCCAGCTGATGAATTTTACGTTTCGAGTAAACAAATTTTCCTAATCTTTCTGTTCAAGCGCCATCTAC” reads 0.852 RPM ratio (pull-down/input); that for “GATGATTGTTCTCCCAGCTGATGAATTGATTCTCTCGAGTAAACAAATTTTCCTAATCTTTCTGTTCAAGCGCCATCTAC”, 1.03 RPM ratio (pull-down/input).
Then “GATGATTGTTCTCCCAGCTGATGAATTTGCAGGTTCGAGTAAACAAATTTTCCTAATCTTTCTGTTCAAGCGCCATCTAC”, with 0.786 RPM ratio (pull-down/input); and “GATGATTGTTCTCCCAGCTGATGAATTCGTTGCCTCGAGTAAACAAATTTTCCTAATCTTTCTGTTCAAGCGCCATCTAC”, with 0.953 RPM ratio (pull-down/input).
The result for “GATGATTGTTCTCCCAGCTGATGAATTATACACATCGAGTAAACAAATTTTCCTAATCTTTCTGTTCAAGCGCCATCTAC” reads 1.62 RPM ratio (pull-down/input).
